# Where “and” joins values, the source holds several entries; their conditions need not be identical. Identical values can stand only once. Among all 400,000 compounds or so, about 2,200 (0.55%) were called active. The shares of active, inactive and inconclusive entries below differ from those in the screen. The call rests on the fitted dose curve; in most records, active means well fitted inhibition curve with a large enough effect; inconclusive means small, poorly fitted or top-dose-only effect, or another doubt; inactive means no such curve, though single readings can be large or run the other way. A potency beside an inconclusive call is a rough fit, not a confirmed value.
# Target: DNA polymerase kappa (Homo sapiens) (UniProt Q9UBT6)
# Sequence of UniProt Q9UBT6 (Q9UBT6 whole entry, looked up): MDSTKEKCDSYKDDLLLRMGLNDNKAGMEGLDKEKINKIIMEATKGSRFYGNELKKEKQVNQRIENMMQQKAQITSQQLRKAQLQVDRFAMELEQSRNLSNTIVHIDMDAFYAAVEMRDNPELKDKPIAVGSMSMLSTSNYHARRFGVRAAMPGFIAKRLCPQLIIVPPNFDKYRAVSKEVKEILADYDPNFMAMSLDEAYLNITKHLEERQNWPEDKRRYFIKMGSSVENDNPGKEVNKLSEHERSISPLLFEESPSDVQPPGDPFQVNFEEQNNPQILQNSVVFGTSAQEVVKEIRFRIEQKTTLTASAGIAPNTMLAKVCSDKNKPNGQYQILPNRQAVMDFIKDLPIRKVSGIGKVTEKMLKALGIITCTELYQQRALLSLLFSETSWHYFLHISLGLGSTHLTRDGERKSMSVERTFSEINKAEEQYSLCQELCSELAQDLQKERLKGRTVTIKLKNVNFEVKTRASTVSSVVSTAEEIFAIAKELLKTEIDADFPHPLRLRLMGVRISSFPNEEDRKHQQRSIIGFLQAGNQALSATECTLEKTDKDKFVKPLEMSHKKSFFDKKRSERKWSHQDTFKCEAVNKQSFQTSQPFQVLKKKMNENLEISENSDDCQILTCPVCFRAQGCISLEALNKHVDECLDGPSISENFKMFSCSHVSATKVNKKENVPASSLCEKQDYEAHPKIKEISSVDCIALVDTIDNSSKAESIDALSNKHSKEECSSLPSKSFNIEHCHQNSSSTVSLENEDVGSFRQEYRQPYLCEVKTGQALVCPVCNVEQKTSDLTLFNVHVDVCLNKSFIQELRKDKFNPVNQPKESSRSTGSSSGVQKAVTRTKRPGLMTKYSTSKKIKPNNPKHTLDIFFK
# Assay: qHTS for Inhibitors of Polymerase Kappa
# Details: purified Pol kappa, fluorescent DNA synthesis assay, 10 min; series mostly up to 107 µM
# How it was run: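 Kinetic fluorescence screen: compound preincubated 15 min RT with 10 nM enzyme; 50 nM substrate (final) initiates; reads at 0/10 min.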
# Potency means the concentration at half of the fitted maximal effect; tags describe the fitted curve by direction and shape.
row,Compound,Potency
1,C#CCOCCOCCOCCNc1nc(N2CCN(C(=O)CCCCCCCCCCNC(=O)[C@H](CCC(=O)O)n3cc(CCCCCN)nn3)CC2)nc(N2CCN(C(=O)CCCCCCCCCCNC(=O)[C@@H]([C@H](C)O)n3cc(C)nn3)CC2)n1,inactive
2,Cn1c(=O)c(-c2cc(F)cc(F)c2)nc2cnc(Nc3ccccc3)nc21,"inconclusive: 31.6 µM [inhibitor, partial curve, poor fit]"
3,C/C=C/c1ccc(O)c(OC)c1,inactive
4,O=C(O)/C=C\C(=O)Nc1ccc(N2CCN(c3ccc(Cl)c(Cl)c3)CC2)cc1,inactive
5,Cc1ccc(C)c(-c2[nH]c3c(c2-c2c(-n4cccc4)n(C)c(=O)n(C)c2=O)c(=O)n(C)c(=O)n3C)c1,inactive
6,COc1ccc(OC)c(Nc2nc(NCCCN(C)C)nc(N)c2[N+](=O)[O-])c1,"inconclusive: 56.2 µM [inhibitor, partial curve, poor fit]"
7,CC(=O)OCC1=C(C(=O)O)N2C(=O)C(NC(=O)c3ccc(COc4cccc(Cl)c4Cl)o3)C2SC1 (centres undefined),"inconclusive: 56.2 µM [inhibitor, partial curve, poor fit]"
8,CN(C)S(=O)(=O)c1cccc(NC(=S)N/N=C/c2ccc(O)c(O)c2O)c1,"inconclusive: 3.98 µM [inhibitor, full curve, poor fit]"
9,O=C(O)c1cc(/C=C/C(=O)c2cc(F)ccc2O)c2c(c1)COCO2,"inconclusive: 89.1 µM [inhibitor, single point]"
10,O=C(N/N=C/c1ccc(F)cc1)c1cc(-c2ccccn2)nc2ccccc12,inactive
11,O=C(O)c1cccc(-n2cccc2/C=C2/SC(=O)N(CC(=O)N3CCCC3)C2=O)c1,"inconclusive: 56.2 µM [inhibitor, partial curve, poor fit]"
12,CS(=O)(=O)c1ccc(Cl)c(NC(=O)c2cc(S(=O)(=O)N3CCOCC3)ccc2N2CCCC2)c1,inactive
13,Cc1cccc(Oc2ccc3c(c2)Oc2ccccc2NC3=O)c1,"inconclusive: 89.1 µM [inhibitor, single point]"
14,CC(Cc1ccc(O)c(O)c1)C(C)Cc1ccc(O)c(O)c1 (centres undefined),active: 891 nM and active: 794 nM and active: 10 µM
15,N#Cc1cccc(OC(=O)c2ccc3c(=O)n4c(nc3c2)CCC4)c1,"inconclusive: 89.1 µM [inhibitor, single point]"
16,CCCC(=O)Nc1ncnc2c1ncn2C1OC2COP(=O)(O)OC2C1OC(=O)CCC (centres undefined),inactive
17,CCc1ccc(CN(C(=O)c2cccs2)C2CCS(=O)(=O)C2)cc1 (centres undefined),"inconclusive: 89.1 µM [inhibitor, single point]"
18,Cc1ccc(OCCC(=O)O)cc1,"inconclusive: 89.1 µM [inhibitor, partial curve, poor fit]"
19,COc1ccccc1Cc1nc2ccccc2nc1SCC(=O)NCc1ccccc1Cl,inactive
20,Nc1ccc2nc3c(=O)[nH]c(=S)[nH]c3nc2c1,active: 2.24 µM
21,Cc1ccc(C)n1/N=C1/NC(=O)CS1,active: 10 µM
22,CN(C)c1ncc2ncc(=O)n(Cc3ccc(F)cc3)c2n1,inactive
23,O=C1CC(C(=O)N2CCN(c3ccccc3O)CC2)CN1Cc1ccccc1 (centres undefined),inactive

row,Compound,Potency
1,CC(=O)c1sc2nc(SCC(=O)N3CCCCC3)[nH]c(=O)c2c1C,active: 79.4 µM
2,CCOC(=O)COc1ccc(C)cc1C(=O)c1ccn2nc(-c3ccc(F)cc3)cc2n1,"inconclusive: 89.1 µM [inhibitor, partial curve, poor fit]"
3,O=C(CCc1ccco1)CCc1ccco1,"inconclusive: 100 µM [inhibitor, single point]"
4,O=C(CSc1nc2ccccc2c2nc3ccccc3n12)NCc1ccco1,"inconclusive: 79.4 µM [inhibitor, partial curve]"
5,Cc1cccc(C2=NN(c3ccccc3)[C@H](CO)[C@H]2c2ccccc2)c1,"inconclusive: 63.1 µM [inhibitor, single point]"
6,COc1ccccc1NC(=O)Cn1c(=O)c(CNc2ccc(C)cc2)cc2cc3c(cc21)OCCO3,inactive
7,CCC(C)n1c(NC(=O)c2ccccc2)c(C#N)c2nc3ccccc3nc21 (centres undefined),"inconclusive: 89.1 µM [inhibitor, partial curve, poor fit]"
8,C=CCc1cccc(CNc2cnc3ccccc3c2)c1O,inactive
9,Cc1ccc(SCc2ccc(C(=O)Nc3cccnc3)cc2)cc1,"inconclusive: 100 µM [inhibitor, partial curve, poor fit]"
10,CN(c1ccccc1)c1ccc(/C=C(/CCC(=O)O)c2nc3ccccc3s2)cc1[N+](=O)[O-],active: 31.6 µM
11,CCOc1cc(C(c2c(C)[nH][nH]c2=O)c2c(C)[nH][nH]c2=O)ccc1O,inactive
12,Cc1ccc(/C=C2\SC(=S)N(c3cccnc3)C2=O)o1,active: 50.1 µM
13,O=C(O)CN1C(=O)/C(=C\c2cc(Br)ccc2OCc2ccc([N+](=O)[O-])cc2)SC1=S,active: 70.8 µM
14,CCN(C(=O)Cn1cnc2onc(-c3ccc(F)cc3)c2c1=O)c1ccc(OC)cc1,inactive
15,CC1(C)C(=O)Nc2ccccc2N1C(=O)COC(=O)c1cccs1,"inconclusive: 89.1 µM [inhibitor, single point]"
16,COc1ccccc1C(=O)NC(=O)CSc1nnc(SC)s1,inactive
17,Cc1cc(C(=O)N/N=C/c2ccc([N+](=O)[O-])o2)c(C)o1,"inconclusive: 89.1 µM [inhibitor, partial curve, poor fit]"
18,COc1ccccc1NC(=O)COC(=O)c1cc2c(s1)CCC2,"inconclusive: 89.1 µM [inhibitor, single point]"
19,CCOC(=O)c1cc2c(=O)n3ccccc3nc2n(Cc2ccco2)c1=NC(=O)c1c(F)cccc1Cl,"inconclusive: 89.1 µM [inhibitor, single point]"
20,Nc1cc(=O)[nH]c(SCC(=O)Nc2ccc3c(c2)CCC3)n1,inactive
21,COc1ccc(NC(=O)c2ccc3c(SCC(=O)O)c4c(nc3c2)CCC4)c(OC)c1,"inconclusive: 89.1 µM [inhibitor, single point]"
22,Cc1ccccc1OC(=O)CSc1nnc(-c2cccs2)o1,inactive
23,CN(C)S(=O)(=O)c1cccc(NC(=O)COC(=O)/C=C/c2ccc(Br)o2)c1,"inconclusive: 89.1 µM [inhibitor, single point]"

row,Compound,Potency
1,Cn1c(=O)c(NCCc2ccccc2)c2c3c(cccc31)C(=O)c1ccccc1-2,"inconclusive: 28.2 µM [inhibitor, single point]"
2,N#Cc1c(-c2ccccc2)[nH]c(=S)[nH]c1=O,inactive
3,O=C(O)c1cc(-c2ccc(/C=N/NC(=S)Nc3ccccc3)o2)ccc1Cl,active: 79.4 µM
4,Cc1ccc(C)c(N2CCN(C3=C(c4ccccc4)C(=O)c4ccccc43)CC2)c1,inactive
5,COc1ccc(OC)c(-c2c3cc(O)c(=O)cc-3oc3cc(O)c(O)cc23)c1,"inconclusive: 28.2 µM [inhibitor, full curve, poor fit]"
6,CCc1cccc(NC(=O)CN2Cc3ccccc3C2=O)c1,inactive
7,Cc1ccc(NC(=O)Nc2nnc(-c3ccncc3)s2)cc1C,"inconclusive: 89.1 µM [inhibitor, single point]"
8,CN(C)/C=C1\SC(=S)N(c2ccc(Br)cc2)C1=O,"inconclusive: 17.8 µM [inhibitor, full curve, poor fit]"
9,CCOc1cc(C(=O)OCC(=O)NCc2ccco2)cc(OCC)c1OCC,"inconclusive: 89.1 µM [inhibitor, single point]"
10,O=C(O)Cn1nnc(-c2ccc(OCc3ccccc3Cl)cc2)n1,"inconclusive: 89.1 µM [inhibitor, single point]"
11,O=C(O)CC1S/C(=N\N=C2CCCCCC2)N(c2ccccc2)C1=O (centres undefined),"inconclusive: 100 µM [inhibitor, partial curve, poor fit]"
12,O=C(CNS(=O)(=O)c1c(Cl)cccc1Cl)OCC(=O)c1ccc[nH]1,"inconclusive: 89.1 µM [inhibitor, single point]"
13,COc1ccc(-c2nnc(Nc3ccc(S(=O)(=O)Nc4nccs4)cc3)c3ccccc23)cc1,active: 50.1 µM
14,Cc1ccc(C)c(N(CC(=O)NC(C)C)C(=O)CCC(=O)Nc2ccccn2)c1,inactive
15,Cn1c(-n2cccc2)c(-c2c(-c3ccccc3)[nH]c3c2c(=O)[nH]c(=O)n3C)c(=O)[nH]c1=O,"inconclusive: 100 µM [inhibitor, single point]"
16,c1ccc(CNc2c(-c3cccc(SC4CCCCC4)c3)nc3ccccn23)cc1,inactive
17,Cc1ccc(O)c(N=Cc2cc(Cc3ccccc3)cc([N+](=O)[O-])c2O)c1,"inconclusive: 79.4 µM [inhibitor, single point]"
18,CCN(CC)C(=O)CC(c1ccc(OC)cc1)c1c(OC)cc(OC)c2ccc(=O)oc12 (centres undefined),"inconclusive: 79.4 µM [inhibitor, partial curve]"
19,Fc1ccccc1-c1ccc(-c2nc3ccc(Cl)cn3c2Nc2ccc(Cl)cc2)o1,"inconclusive: 28.2 µM [inhibitor, single point]"
20,O=C(Nc1cccnc1)c1cccc(-c2cc3ccccc3oc2=O)c1,inactive
21,Cc1ccc(NC(=O)CSc2nc3c(sc4ccccc43)c(=O)n2CCCC(=O)NC2CCCC2)cc1C,inactive
22,O=C(NCc1ccco1)c1cc2cc3ccc(Cl)cc3nc2o1,"inconclusive: 89.1 µM [inhibitor, partial curve, poor fit]"
23,Cc1ccc2oc(-c3cc(NC(=O)CC(C)C)ccc3Cl)nc2c1,"inconclusive: 100 µM [inhibitor, single point]"
